Assay results taken from the supplement of paper PMC4967469.

How the values were obtained:
Assay in all cases: Viability of human cancer cell lines after 72 h of drug (GDSC screen)
OSU-03012 = compound: NCC(=O)Nc1ccc(-n2nc(C(F)(F)F)cc2-c2ccc3c(ccc4ccccc43)c2)cc1 [OSU-03012]; details: top dose 16 µM; top dose inferred
Protocol: (§1)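 Human cancer cell lines in 384-well plates, medium with 10% serum, drug for 72 h over a 256-fold dose range (nine 2-fold or five 4-fold steps up to the top dose). Adherent lines were fixed and stained with the nucleic acid dye Syto60, suspension lines read with resazurin; signal relative to control wells, capped at 0 and 100%. One two-parameter sigmoid per drug and line, fitted in a mixed model over all curves with the slope shared within a line.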

5-Fluorouracil = compound: O=c1[nH]cc(F)c(=O)[nH]1 [5-Fluorouracil]; details: top dose 32 µM; top dose inferred
Protocol: as §1

JNK-9L = compound: Fc1cc(-c2ccnc(Nc3ccc(-n4cnc(N5CCOCC5)n4)cc3)n2)cc(N2CCOCC2)c1 [JNK-9L]; details: top dose 5.12 µM; top dose inferred
Protocol: as §1

RDEA119 = compound: COc1cc(F)c(F)c(Nc2ccc(I)cc2F)c1NS(=O)(=O)C1(C[C@H](O)CO)CC1 [RDEA119]; details: top dose 5 µM, top dose inferred
Protocol: as §1

CUDC-101 = compound: C#Cc1cccc(Nc2ncnc3cc(OC)c(OCCCCCCC(=O)NO)cc23)c1 [CUDC-101]; details: top dose 5.12 µM; top dose inferred
Protocol: as §1

AC220 = compound: CC(C)(C)c1cc(NC(=O)Nc2ccc(-c3cn4c(n3)sc3cc(OCCN5CCOCC5)ccc34)cc2)no1 [AC220]; details: top dose 1.024 µM; top dose inferred
Protocol: as §1

QS11 = compound: OC[C@H](Cc1ccccc1)Nc1nc(Oc2ccc3c(c2)CCC3)nc2c1ncn2Cc1ccc(-c2ccccc2)cc1 [QS11]; details: top dose 10.24 µM
Protocol: as §1

Cell Line	AUC (OSU-03012)	IC50 (OSU-03012) [µM]	AUC (5-Fluorouracil)	IC50 (5-Fluorouracil) [µM]	AUC (JNK-9L)	IC50 (JNK-9L) [µM]	AUC (RDEA119; screen: GDSC drug entry 1014)	IC50 (RDEA119; screen: GDSC drug entry 1014) [µM]	AUC (RDEA119; screen: GDSC drug entry 1526)	IC50 (RDEA119; screen: GDSC drug entry 1526) [µM]	AUC (CUDC-101)	IC50 (CUDC-101) [µM]	AUC (AC220)	IC50 (AC220) [µM]	AUC (QS11)	IC50 (QS11) [µM]
LU-135 (small cell lung carcinoma, suspension)	0.453	0.762	0.924	> 32	0.529	0.379	0.992	> 5	0.99	> 5	0.389	0.168	0.954	> 1.02	0.653	1.57
LU-139 (small cell lung carcinoma, suspension)	0.837	15.4	0.896	> 32	0.755	2.2	0.843	> 5	0.963	> 5	0.567	0.514	0.946	> 1.02	0.934	> 10.2
LU-165 (small cell lung carcinoma, suspension)	0.859	> 16	0.95	> 32	0.661	0.95	0.988	> 5	0.985	> 5	0.59	0.583	0.92	> 1.02	0.97	> 10.2
LXF-289 (lung adenocarcinoma, adherent)	0.622	2.15	0.944	> 32	0.627	0.71	0.795	2.28	0.823	2.89	0.638	0.766	0.987	> 1.02	0.853	7.76
M059J (glioma, adherent)	0.798	8.34	0.843	25.6	0.499	0.318	0.919	> 5	0.915	> 5	0.606	0.643	0.985	> 1.02	0.931	> 10.2
MC116 (B-cell lymphoma, suspension)	0.86	7.48	0.703	6.16	0.571	0.475	0.999	> 5	0.999	> 5	0.225	0.0697	0.999	> 1.02	0.984	> 10.2
MC-CAR (haematopoietic neoplasm, suspension)	0.626	2.13	0.409	1.16	0.533	0.389	0.839	2.9	0.928	> 5	0.439	0.223	0.971	> 1.02	0.898	> 10.2
MC-IXC (neuroblastoma, adherent)	0.503	1.02	0.673	5.25	0.434	0.222	0.972	> 5	0.996	> 5	0.455	0.249	0.996	> 1.02	0.947	> 10.2
MDA-MB-330 (breast, adherent)	0.847	14.4	0.977	> 32	0.657	0.931	0.986	> 5	–	–	0.609	0.665	0.942	> 1.02	0.849	9.38
MDA-MB-361 (breast, adherent)	0.833	10.3	0.979	> 32	0.652	0.84	0.887	> 5	0.95	> 5	0.431	0.207	0.989	> 1.02	0.984	> 10.2
MDA-MB-415 (breast, adherent)	0.817	13.1	0.981	> 32	0.711	1.56	0.871	> 5	0.913	> 5	0.893	> 5.12	0.983	> 1.02	0.98	> 10.2
MDST8 (large intestine, adherent)	0.841	11	0.966	> 32	0.817	2.82	0.6	0.586	0.246	0.0583	0.667	0.931	0.984	> 1.02	0.964	> 10.2
MEG-01 (chronic myeloid leukaemia, suspension)	0.687	3.21	0.603	3.76	0.64	0.76	0.614	0.629	0.657	0.83	0.623	0.684	0.987	> 1.02	0.806	4.86
MEL-JUSO (melanoma, adherent)	0.627	2.34	0.583	3.46	0.507	0.336	0.566	0.485	0.645	0.827	0.482	0.284	0.977	> 1.02	0.84	8.27
MES-SA (uterus, adherent)	0.77	5.22	0.992	> 32	0.571	0.485	0.959	> 5	0.921	> 5	0.88	3.98	0.986	> 1.02	0.934	> 10.2
MFE-280 (endometrium, adherent)	0.876	> 16	0.85	> 32	0.798	3.22	0.976	> 5	0.974	> 5	0.464	0.249	0.98	> 1.02	0.901	> 10.2
MFE-296 (endometrium, adherent)	0.703	3.93	0.961	> 32	0.416	0.185	0.884	> 5	0.881	> 5	0.951	> 5.12	0.985	> 1.02	0.957	> 10.2

By IC50 is meant the dose at which the fit gives 50% viability; a limit (>, <) means that the fit lies beyond the doses tested. AUC is the area under the same curve over the 256-fold range up to the top dose, as a fraction: 1 means no effect, lower means more sensitive. For part of these data: An inferred top dose was derived from the fitted curves, not read from the paper. For part of these data: Where an entry number is given, a second screen of the drug exists; the two often differ.
